In all, about 420,000 compounds went through this assay and about 50,000 (12%) were called active. The shares of active, inactive and inconclusive entries below differ from those in the screen. The call rests on the fitted dose curve; in most records, active means well fitted inhibition curve with a large enough effect; inconclusive means small, poorly fitted or top-dose-only effect; inactive means flat fitted curve, though single readings scatter. Potencies of inconclusive entries are left out as doubtful fits. The source holds several records for some structures; these can differ, active in one and inactive in another.
Assay: qHTS for Inhibitors of human tyrosyl-DNA phosphodiesterase 1 (TDP1): qHTS in cells in presence of CPT; further: nearly all actives have a fitted effect of over 55% in size
Conditions: chicken DT40 Tdp1-/-;hTDP1 cells + 20 nM CPT, ATP luminescence, 48 h; activity change, negative = growth inhibition: at 46.2 µM (top of the series) unless noted
In short: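 Cell growth measured by CellTiter-Glo luminescence after a minimum 48 h, 37 C compound exposure with 20 nM CPT in Tdp1-knockout DT40 cells stably expressing hTDP1, seeded 400/well; qHTS titration format.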
On the % scale 0 is the no-effect control and ±100 the full control effect; potency means the concentration at half of the fitted maximal effect; tags describe the fitted curve by direction and shape.

| SMILES | Potency | activity change, negative = growth inhibition |
| --- | --- | --- |
| Cc1ccc(-c2onc(C)c2C)cc1S(=O)(=O)N1c2ccccc2CC1C (configuration not stated) | inconclusive [inhibitor, single point] | – |
| C[C@H](O)[C@@H]1C(=O)N2CCc3ccc(N4CCOCC4)cc3[C@@H]2C[C@@H]1N(C)S(=O)(=O)c1ccccc1 | inconclusive [inhibitor, single point] | – |
| Fc1ccc(CNc2nc(-c3cccnc3)nc3ccccc23)cc1 | inconclusive [inhibitor, single point] | – |
| CCOC(=O)/C(C#N)=C/c1c(N2CCN(Cc3ccc4c(c3)OCO4)CC2)nc2c(C)cccn2c1=O | inconclusive [inhibitor, single point] | – |
| COc1ccc(CCNC(=O)c2c(O)nc3c(C)cccn3c2=O)cc1 | active: 16.4 µM | – |
| O=C(Nc1cccc(Cl)c1)O/N=C\c1ccncc1 | inactive | – |
| Cc1cc(C)n2nc(C(=O)OCC(=O)N3CC(C)CC(C)C3)nc2n1 (configuration not stated) | inactive | – |
| COc1ccc(C(=O)N2c3ccccc3C(C)(c3ccc(Cl)cc3)CC2(C)C)cc1 (configuration not stated) | inconclusive [inhibitor, single point] | – |
| CC(=O)c1cn(C)c(=O)n(C)c1=O | inactive | – |
| Clc1ccc(-c2cc3ccccc3nc2N2CCCC2)cc1 | inconclusive [inhibitor, single point] | – |
| C[C@@H]1CN([C@@H](C)CO)C(=O)c2c(c3ccccc3n2C)-c2ccccc2CO[C@H]1CN(C)S(=O)(=O)c1ccc(C(F)(F)F)cc1 | inactive | – |
| Cc1nc([N+](=O)[O-])c(N2CCN(C)CC2)n1Cc1ccccc1 | inactive | – |
| N#Cc1nc(-c2ccc(OCc3ccccc3)cc2)oc1N1CCC(C(N)=O)CC1 | inactive | – |
| S=C1SCN(Cc2ccccc2)CN1Cc1ccccc1 | active: 8.41 µM | – |
| COc1ccccc1CNc1nc(NCC2CC2)nc2ccsc12 | active: 10.3 µM | – |
| O=C(NC(NC(=S)Nc1c(Cl)cc(Cl)cc1Cl)C(Cl)(Cl)Cl)OCc1ccccc1 (configuration not stated) | inconclusive [inhibitor, single point] | – |
| CCOC(=O)C1=C(C)N=C2SCCC(=O)N2C1c1ccc(C(=O)OC)cc1 (configuration not stated) | inconclusive [inhibitor, single point] | – |
| CCOC(=O)c1c(-c2cc(OC)c(OC)c(OC)c2)csc1NC(=O)c1ccccc1 | inconclusive [inhibitor, single point] | – |
| CCO[C@H]1OC(C(=O)N2CCCCCCC2)=C[C@@H](c2ccc(C(F)(F)F)cc2)[C@@H]1CCCO | inconclusive [inhibitor, single point] | – |
| Cc1csc(NS(=O)(=O)c2cccc([N+](=O)[O-])c2)n1 | inactive | – |
| Oc1cc2c(c(Cl)c1O)CCNC[C@H]2c1ccccc1 | active: 11.9 µM | – |
| CC(NC(=S)Nc1ccc(OC(F)F)cc1)c1ccc(F)cc1 (configuration not stated) | active: 14.6 µM | – |
| O=C(Nc1nc2ccc(F)cc2s1)Oc1ccccc1 | inactive | – |
| CC1(C)CC2CC(C)(CN2C(=O)COc2cccc3ccccc23)C1 (configuration not stated) | inconclusive [inhibitor, single point] | – |

| SMILES | Potency | activity change, negative = growth inhibition |
| --- | --- | --- |
| COc1ccc(CCNC(=O)c2ccc(NC(=O)CC3SC(N4CCCC4)=NC3=O)cc2)cc1 (configuration not stated) | inconclusive [inhibitor, single point] | – |
| O=C(Nc1ccc2c(c1)OCO2)c1cc2ncc(Br)cn2n1 | inconclusive [inhibitor, single point] | – |
| Clc1cccc(Cc2c(-c3cccc(Br)c3)nc3ccc(Br)cn23)c1 | inconclusive [inhibitor, single point] | – |
| CN(C)CCNC(=O)Cn1c(=O)c2cccn2c2ccc(F)cc21 | active: 23.1 µM | – |
| CC(=O)Nc1ccc(NC(=O)C(C)O/N=C/c2cccc([N+](=O)[O-])c2)cc1 (configuration not stated) | inactive | – |
| O=C(N1CCCCCC1)n1c(Cc2ccccc2)nc2ccccc21 | inconclusive [inhibitor, single point] | – |
| Oc1ccc(Cl)cc1C1=NNC(c2ccc(Cl)cc2)C1 (configuration not stated) | active: 23.1 µM | – |
| c1ccc(CNc2nc(NCc3cccs3)nc3ccsc23)cc1 | active: 18.4 µM | – |
| Cc1cccc(C)c1OCCNC(=O)OCc1ccccc1 | inconclusive [inhibitor, single point] | – |
| COc1cccc(NC(=O)NCc2ccccc2F)c1 | inconclusive [inhibitor, single point] | – |
| COc1cccc(-c2nc(SCC(=O)Nc3ccc4c(c3)OCCO4)c(-c3ccccc3)[nH]2)c1 | active: 23.1 µM | – |
| CCc1c(C)nc2ncnn2c1Nc1ccc(C)cc1 | inconclusive [inhibitor, single point] | – |
| O=C(NCCn1cc(SCc2ccc(Cl)cc2)c2ccccc21)c1cccs1 | inconclusive [inhibitor, single point] | – |
| CN(C)c1ccc(N=Nc2ccnc3ccccc23)cc1 | inconclusive [inhibitor, single point] | – |
| COc1cc(OC)cc(-c2c(-c3cccs3)c3cc(-c4ccc(OC)cc4F)ccc3n2C)c1 | inconclusive [inhibitor, single point] | – |
| Nc1nnc(SCCCC(=O)c2ccc(Br)cc2)s1 | – | inconclusive: -30.4% [inhibitor] |
| CCOC(=O)c1[nH]c(C)c(CCC(=O)N2CCN(c3cccc(OC)c3)CC2)c1C | inconclusive [inhibitor, single point] | – |
| CCCCN(CC)C(=O)CSc1nc2n[nH]c(C)c2c(=N)n1-c1cccc(Cl)c1 | active: 11.6 µM | – |
| CCN(CC(=O)NCc1ccc(F)cc1)Cc1nc2ccccc2c(=O)[nH]1 | inactive | – |
| CC(=O)Nc1cccc(-c2cccc3nccn23)c1 | inactive | – |
| CCCCN(CCCC)C(=O)/C=C/c1cccc([N+](=O)[O-])c1 | inconclusive [inhibitor, single point] | – |
| CN(CC(=O)Nc1ccc(F)cc1)C(=O)COC(=O)CCN1C(=O)C2CC=CCC2C1=O (configuration not stated) | inactive | – |
| CCOc1ccc(NC(=O)Cn2ncc3c2-c2cc(C)ccc2OC3)cc1 | inactive | – |

— PubChem BioAssay AID686979 (National Center for Advancing Translational Sciences (NCATS), 2013)
